In PubChem BioAssay AID485364 (National Center for Advancing Translational Sciences (NCATS), 2010):
The whole screen tested about 360,000 compounds, of which about 11,000 (3.1%) were called active. The inconclusive results got no clear call from the source; some entries with a clear call stand among them for comparison. The call rests on the fitted dose curve; in most records, active means well fitted inhibition curve with a large enough effect; inconclusive means small, poorly fitted or top-dose-only effect; inactive means no such curve, though single readings can be large or run the other way. Potencies of inconclusive entries are left out as doubtful fits.

Each compound was assayed against Schistosoma mansoni thioredoxin glutathione reductase (TGR) (UniProt Q962Y6) (assay: qHTS Assay for the Inhibitors of Schistosoma Mansoni Peroxiredoxins). Settings: purified TGR, DTNB reduction, TNB absorbance 405 nm; activity change, negative = inhibition: at 114 µM (top of the series) unless noted.
Method in brief: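 TGR 20 nM + NADPH 100 uM (dispensed conc.), cpd preinc 15 min RT; start with NADPH (500 uM addition) then DTNB (15 mM addition). Kinetic TNB absorbance, 405 nm filter. Four-parameter Hill fit across titration.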
Further: nearly all actives have a fitted effect of over 60% in size.
On the % scale 0 is the no-effect control and ±100 the full control effect; potency means the concentration at half of the fitted maximal effect; tags describe the fitted curve by direction and shape.

Row | Structure (SMILES) | Potency | activity change, negative = inhibition
1 | O=c1cccccc1NN=C1CCCCC1 | inconclusive [inhibitor, partial curve] | –
2 | COc1ccc(Cl)cc1NC(=O)CN1C(=O)CC(C)S(=O)(=O)c2ccccc21 (stereo unspecified) | inconclusive [inhibitor, partial curve] | –
3 | COc1cc2c(cc1OC)C1O[C@](CCCCN3C(=O)c4ccccc4C3=O)(C2)Oc2c1c(=O)oc1ccc(F)cc21 | active: 2.51 µM | –
4 | CC(=O)c1cccc(N=C2NC(=O)C(CO)(CO)S2)c1 | inconclusive [inhibitor, partial curve] | –
5 | CCOC(=O)c1ccc(NC(=S)Nc2ccc3[nH]c(=O)[nH]c3c2)cc1 | inconclusive [inhibitor, full curve] | –
6 | Cc1cc(NC(=O)CSc2c3c(nc4ccccc24)CCC3)no1 | – | inactive: 1.54%
7 | O=C(O)C1CCCCC1C(=O)Nc1ccc2c(c1)OCO2 (stereo unspecified) | – | inactive: -3.31%
8 | O=C(COC(=O)c1ccc(-c2ccc([N+](=O)[O-])cc2)o1)NC(=O)NC1CCCCC1 | active: 39.8 µM | –
9 | COC(=O)Cc1ccc(NC(=S)NCc2ccc(Cl)cc2)cc1 | inconclusive [inhibitor, partial curve] | –
10 | CCC(CC)NC(=O)COn1nnc2ccc(S(=O)(=O)N3CCOCC3)cc21 | inconclusive [inhibitor, partial curve] | –
11 | Cc1c(CCOC(=O)c2ccc(N3CCOCC3)c([N+](=O)[O-])c2)sc[n+]1CC#N | active: 0.891 µM | –
12 | Cn1nnnc1SCC(=O)Nc1ccc(C(=O)N2CCN(Cc3ccccc3F)CC2)cc1 | – | inactive: 1.55%
13 | COc1cccc(-c2n[nH]c(=S)n2Cc2ccco2)c1 | active: 35.5 µM | –
14 | C=CCNC(=S)/N=c1/ccccn1CCC | inconclusive [inhibitor, full curve] | –
15 | Cc1ccc(Cl)cc1-n1c(CCC(=O)O)ccc1-c1cccs1 | active: 39.8 µM | –
16 | O=S(=O)(NNC(=S)NCC1CCCO1)c1cc(Cl)ccc1Cl (stereo unspecified) | inconclusive [inhibitor, full curve, poor fit] | –
17 | COc1ccc(/C=C2\COc3ccccc3C2=O)cc1OC | inconclusive [inhibitor, full curve, poor fit] | –
18 | CCN1/C(=C/C(=O)c2ccco2)Sc2ccccc21 | active: 20 µM | –
19 | C/C(=N\NC(=O)c1ccc(O)cc1)c1ccc2c(c1)Nc1ccccc1S2 | – | inactive: -5.04%
20 | CCOc1cc(C2NC(=O)N(C)C(C)=C2C(=O)OC)cc(Br)c1O (stereo unspecified) | active: 50.1 µM | –
21 | COc1ccc(C[C@H]2CN3C(=NC[C@@H]3C(C)C)N2CCNC(=O)c2ccc(C)c(Br)c2)cc1 | inconclusive [inhibitor, partial curve] | –
22 | Oc1cccc(NC(=S)Nc2ccccc2)c1 | active: 15.8 µM | –
23 | Cc1nn(CC(=O)NCc2ccccc2Cl)c(=O)c2cccn12 | – | inactive: 7.4%

Row | Structure (SMILES) | Potency | activity change, negative = inhibition
24 | O=C(N/N=C/c1ccc(OC(=O)c2cccc(Br)c2)cc1)c1cccnc1 | – | inactive: 1.12%
25 | COc1ccc(C(=O)C2CCCN(S(=O)(=O)c3cccnc3)C2)c(C)c1 (stereo unspecified) | inconclusive [inhibitor, partial curve] | –
26 | Cc1nc([N+](=O)[O-])c(Br)n1CC(=O)c1cccc([N+](=O)[O-])c1 | active: 2 µM | –
27 | CCN(CC)C(=O)CSc1nnc(CNc2ccc(F)cc2)n1Cc1ccco1 | inconclusive [inhibitor, partial curve] | –
28 | Fc1ccc(Nc2c3c(nc4nncn24)CCC3)cc1 | inconclusive [inhibitor, partial curve] | –
29 | CC(C(=O)Nc1ccc(Br)cc1)N(C)CC(=O)NCc1ccco1 (stereo unspecified) | inconclusive [inhibitor, partial curve] | –
30 | CCOc1ccc(C2C(C#N)=C(N)Oc3cc(C)n(Cc4ccco4)c(=O)c32)cc1OC (stereo unspecified) | inconclusive [inhibitor, single point] | –
31 | CC(=O)c1cc(-c2ccc(F)cc2)n(CC(=O)NC(C)c2ccccc2)c1C (stereo unspecified) | inconclusive [inhibitor, single point] | –
32 | COc1cccc(/C=N/c2oc(-c3ccccc3)cc2C#N)c1O | inconclusive [inhibitor, partial curve] | –
33 | Cc1[nH]c2ccccc2c1C(O)CN1CCN(c2cccc(C(F)(F)F)c2)CC1 (stereo unspecified) | active: 31.6 µM | –
34 | CN1CC(C(=O)c2ccc([N+](=O)[O-])cc2)C(c2ccc(Cl)cc2)C1 (stereo unspecified) | inconclusive [inhibitor, partial curve] | –
35 | CCC(C(=O)N1CCc2cc(OC)c(OC)cc2C1)c1ccccc1 (stereo unspecified) | inconclusive [inhibitor, partial curve] | –
36 | Cc1ccc2c(c1)CCCN2CC(=O)N(C)c1c(N)n(Cc2ccccc2)c(=O)[nH]c1=O | inconclusive [inhibitor, partial curve] | –
37 | CCOC(=O)c1[nH]c(C)c(CCC(=O)NCc2ccc(C)cc2)c1C | inconclusive [inhibitor, single point] | –
38 | COc1cccc(N2C(=O)CC(N3CCc4ccccc4C3)C2=O)c1 (stereo unspecified) | active: 39.8 µM | –
39 | Cc1ccccc1-n1c(C)nnc1SCc1cc(=O)oc2ccc3ccccc3c12 | – | inactive: -32%
40 | N#CCC(=O)NNc1c([N+](=O)[O-])cc(C(F)(F)F)cc1[N+](=O)[O-] | – | inactive: 1.01%
41 | COc1ccc(CCNC(=O)CS(=O)Cc2nc(-c3ccc(C)cc3)oc2C)cc1OC (stereo unspecified) | inconclusive [inhibitor, partial curve] | –
42 | Cc1nc2ncccn2c1-c1csc(Nc2ccc(O)cc2)n1 | inconclusive [inhibitor, partial curve] | –
43 | Cc1ccc(C(=O)NC(=S)Nc2cccc3nsnc23)cc1 | inconclusive [inhibitor, partial curve] | –
44 | CC(C)C(NC(=O)c1ccc(C(C)(C)C)cc1)C(=O)OCC(=O)NC(=O)Cc1ccccc1 (stereo unspecified) | inconclusive [inhibitor, single point] | –
45 | COCCNC(=O)Cn1cnc2c(cnn2-c2ccc(C)cc2)c1=O | active: 89.1 µM | –
46 | Cc1ncc(CNC(=O)N(CCCl)N=O)c(N)n1 | – | inactive: -22.1%
